Laboratory results reported in the supplement of paper PMC3334620.
In all, about 33,000 sequences were measured (“E-score (-0.5 to 0.5)”: median about -0.016, highest 2% from about 0.32 on). This is one part of the list.

These sequences were tested against T1, Stp1 (UniProt B3LFK1) (assay: PBM E-score (8-mer binding enrichment) (E-score (-0.5 to 0.5)); higher = stronger / more preferred TF binding; most listed sequences are background and not binding sites). Settings: protein concentration: 200 nM; construct: GST-full length.
T1 sequence: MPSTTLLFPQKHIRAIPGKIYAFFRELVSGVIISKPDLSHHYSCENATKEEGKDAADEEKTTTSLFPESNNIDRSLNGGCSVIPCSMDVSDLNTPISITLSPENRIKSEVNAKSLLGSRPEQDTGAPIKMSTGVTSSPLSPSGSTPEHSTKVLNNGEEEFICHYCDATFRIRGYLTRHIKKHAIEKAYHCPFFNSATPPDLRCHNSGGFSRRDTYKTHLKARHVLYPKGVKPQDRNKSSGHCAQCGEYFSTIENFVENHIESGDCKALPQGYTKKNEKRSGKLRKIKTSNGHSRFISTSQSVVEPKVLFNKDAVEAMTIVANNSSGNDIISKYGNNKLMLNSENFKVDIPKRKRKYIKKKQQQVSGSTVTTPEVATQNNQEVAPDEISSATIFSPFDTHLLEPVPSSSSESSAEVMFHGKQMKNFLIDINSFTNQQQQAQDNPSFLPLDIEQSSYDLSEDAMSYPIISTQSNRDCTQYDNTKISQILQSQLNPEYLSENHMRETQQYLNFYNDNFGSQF
How it was run: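 GST-tagged yeast TFs (full-length or DNA-binding domain) were made by PURExpress in vitro transcription/translation and applied at about 100-200 nM to universal all-10-mer Agilent arrays. The arrays were made double-stranded by primer extension, on fresh or once-stripped slides. Bound protein was detected with fluorescent anti-GST, and scans were normalised with masliner. Each ungapped eight-base word, pooled with its reverse complement, received an E-score (modified Wilcoxon-Mann-Whitney statistic) from the Universal PBM Analysis Suite.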

Sequence	PBM E-score
CATCCGAC	0.0344
ACAGGATG	-0.0316
ACTCCCAG	-0.264
ATCAGCCG	0.106
ACATCCGC	0.205
TGGGAGAA	-0.189
GGTGCGCA	0.0539
AGGTTTGC	0.0228
ACTATGGC	-0.0227
ACTTGGAG	-0.115
AGTCGACT	0.0504
ACAGATGT	-0.149
GCGCGCGA	0.285
ACATTCCC	-0.00691
GACGAAAC	0.192
TATTCAAA	0.242
AGTGTGGA	-0.0557
ATTCGACG	-0.0394
ATACCCAC	-0.163
AAGATAAA	0.31
AGTGTCAT	-0.0136
AGGACCGA	-0.194
CAGCGTGA	-0.188
AGGATTTA	0.02
ATGTTTAG	0.114

Sequence	PBM E-score
TCTCCCAA	-0.136
CTCATCAG	0.0519
GCTTCACC	-0.153
CCTCTATC	-0.223
ACGCGAGG	0.0793
AAGCGGTA	-0.0388
AACAAAGC	0.107
ATCCTCAG	-0.0791
CGCCTCGA	0.205
CATAACCG	-0.0149
CCCCGGCC	-0.404
ATCTTGTG	-0.11
AAGGAAGT	0.0374
TACAGACA	0.171
TGACGACA	-0.0157
CCCGCGCA	-0.0346
CCTTCCGA	0.0578
GGTTTTAC	-0.126
CCACCGCA	-0.118
TACATTCA	-0.0994
GCAGCATA	0.0149
CCCCTACA	-0.255
ACGCAAAA	0.0612
AGTTTCAT	0.111
CACCAGAC	0.0249

Sequence	PBM E-score
GAAAAGCA	-0.114
CTTCGAAG	0.0561
GATCGTGC	0.127
ATGCTTAC	-0.164
AACGGTAG	-0.212
GCACTGGC	-0.147
GAGCACAA	-0.00748
ACTCGTCC	-0.0203
CAAATTTA	0.236
CATGCGAC	-0.00366
GCAAGCAA	0.00336
AATTGGAG	-0.143
CCGCCGCC	0.194
TATCCCGA	-0.168
CAGGTCTC	-0.197
ATTGTCCA	0.111
AGGTTTAG	-0.24
AACAATTC	0.0872
CGCGCGGC	0.483
CAAAAAGC	0.187
ATCTTAAC	0.186
ATTGCTGC	0.199
CAACCCTC	-0.287
CCCGGCTA	-0.148
GGTTAACA	0.0916

Sequence	PBM E-score
AGTATAAC	-0.113
CGGAGTCA	-0.0711
CAGGGCCG	0.187
GAATCCCA	-0.0304
TCGTTCAA	-0.104
CTATTAAA	0.261
AATTAGTG	0.193
CCTGGCAC	-0.0915
AGTAGAAC	-0.118
ACAGATTA	-0.146
AGGATGCC	0.0869
AGAAGCTG	-0.0485
ACCTTAGA	-0.0927
AGCATTCG	-0.154
CTAGAAGC	-0.0655
CCAGTAGA	-0.176
GGATCTTA	-0.0225
ATCATAAC	0.161
AGAGTCGC	-0.166
GAGCGTCC	-0.314
AATGGACG	0.278
TCGGAACA	0.0567
GGGGCTGA	-0.254
ACTCCTAG	-0.123
ATGACACC	-0.27

Sequence	PBM E-score
GCACTACA	0.0263
ATCGATTA	0.0837
CCAATGCC	0.152
ACGTATCT	-0.111
CGTAGCCC	-0.107
ATTTAACG	0.208
GAAACCGC	0.184
AATGTTGG	0.196
AAGGGCCT	-0.258
ATTCTTCA	-0.0361
AGGGGGGA	-0.454
AATGGTGC	0.066
CACTGGGA	-0.16
TAGTTCCA	0.111
AATATCTG	-0.0587
AACGGCGA	0.452
GGGCATCA	0.104
CTGATGTC	0.0864
ACTGAACC	-0.173
ACTAACGC	0.0748
AACAAGAC	-0.0256
AGCTCCGC	-0.0821
GACTGATA	-0.134
CGGTACAC	-0.205
ATTAGGGA	-0.145

Sequence	PBM E-score
AAACGCTG	-0.101
CTATGCTC	-0.317
CGCAGGAG	-0.0328
AATAGGGG	-0.182
GCCCACAC	0.126
AAGGTGTC	-0.0527
ACGGTAGT	-0.121
TGCGGCAA	0.412
GTAACCAC	-0.136
AGAAAGAT	0.144
CATACTTC	-0.12
CTTCCTTC	-0.17
GCAGTAAA	-0.0295
AGCTTAAC	-0.207
AGTTTTCC	0.0808
ATGCAGAA	0.0791
CCAGCGGG	-0.14
AAAACACG	0.157
ATATGTAG	-0.0608
GCTGGCTA	-0.329
ATGTGCAG	-0.239
CCTAGGGC	-0.151
CATGAATG	0.0464
ATTATTAC	0.0641
CGAATACA	0.0367

Sequence	PBM E-score
ATATCATG	-0.104
CCTTCTAA	-0.121
AAAACGGC	0.403
CGGAACAA	0.0927
CTGGACGA	-0.224
CGTGGGCC	0.0554
AGCAAAAT	0.124
GAACTTAC	0.102
GGTGGCGA	-0.115
CACATACC	-0.0489
CGGACAAA	0.0563
GTCACGAA	0.0128
AGCTTCTC	-0.318
AATGTTAC	0.155
CGGTCTTA	-0.149
AGTCGGTC	-0.278
CGCTTTTC	0.0461
GACAAGAC	-0.118
TCCAAACA	0.0389
AACGTTGT	-0.128
CGAAGACG	-0.018
CAGTGAGA	-0.108
